{"source": "PubChem BioAssay AID504333", "about": "(National Center for Advancing Translational Sciences (NCATS), 2011)", "note": "Out of some 360,000 compounds screened, about 16,000 (4.4%) were called active. The inconclusive results got no clear call from the source; some entries with a clear call stand among them for comparison. Calls come from the whole dose curve; as a rule, active = well fitted inhibition curve with a large enough effect; inconclusive = small, poorly fitted or top-dose-only effect; inactive = no such curve, though single readings can be large or run the other way. Potencies of inconclusive entries are doubtful fits and often do not repeat. % is set by controls: 0 for no effect and ±100 for the full control effect; potency is the fitted concentration of half-maximal effect; tags give direction and shape of the fitted curve.", "data": [{"target": "Bromodomain adjacent to zinc finger domain protein 2B (Homo sapiens) (UniProt Q9UIF8)", "sequence (Q9UIF8 whole entry, looked up, the tested form may be a part)": "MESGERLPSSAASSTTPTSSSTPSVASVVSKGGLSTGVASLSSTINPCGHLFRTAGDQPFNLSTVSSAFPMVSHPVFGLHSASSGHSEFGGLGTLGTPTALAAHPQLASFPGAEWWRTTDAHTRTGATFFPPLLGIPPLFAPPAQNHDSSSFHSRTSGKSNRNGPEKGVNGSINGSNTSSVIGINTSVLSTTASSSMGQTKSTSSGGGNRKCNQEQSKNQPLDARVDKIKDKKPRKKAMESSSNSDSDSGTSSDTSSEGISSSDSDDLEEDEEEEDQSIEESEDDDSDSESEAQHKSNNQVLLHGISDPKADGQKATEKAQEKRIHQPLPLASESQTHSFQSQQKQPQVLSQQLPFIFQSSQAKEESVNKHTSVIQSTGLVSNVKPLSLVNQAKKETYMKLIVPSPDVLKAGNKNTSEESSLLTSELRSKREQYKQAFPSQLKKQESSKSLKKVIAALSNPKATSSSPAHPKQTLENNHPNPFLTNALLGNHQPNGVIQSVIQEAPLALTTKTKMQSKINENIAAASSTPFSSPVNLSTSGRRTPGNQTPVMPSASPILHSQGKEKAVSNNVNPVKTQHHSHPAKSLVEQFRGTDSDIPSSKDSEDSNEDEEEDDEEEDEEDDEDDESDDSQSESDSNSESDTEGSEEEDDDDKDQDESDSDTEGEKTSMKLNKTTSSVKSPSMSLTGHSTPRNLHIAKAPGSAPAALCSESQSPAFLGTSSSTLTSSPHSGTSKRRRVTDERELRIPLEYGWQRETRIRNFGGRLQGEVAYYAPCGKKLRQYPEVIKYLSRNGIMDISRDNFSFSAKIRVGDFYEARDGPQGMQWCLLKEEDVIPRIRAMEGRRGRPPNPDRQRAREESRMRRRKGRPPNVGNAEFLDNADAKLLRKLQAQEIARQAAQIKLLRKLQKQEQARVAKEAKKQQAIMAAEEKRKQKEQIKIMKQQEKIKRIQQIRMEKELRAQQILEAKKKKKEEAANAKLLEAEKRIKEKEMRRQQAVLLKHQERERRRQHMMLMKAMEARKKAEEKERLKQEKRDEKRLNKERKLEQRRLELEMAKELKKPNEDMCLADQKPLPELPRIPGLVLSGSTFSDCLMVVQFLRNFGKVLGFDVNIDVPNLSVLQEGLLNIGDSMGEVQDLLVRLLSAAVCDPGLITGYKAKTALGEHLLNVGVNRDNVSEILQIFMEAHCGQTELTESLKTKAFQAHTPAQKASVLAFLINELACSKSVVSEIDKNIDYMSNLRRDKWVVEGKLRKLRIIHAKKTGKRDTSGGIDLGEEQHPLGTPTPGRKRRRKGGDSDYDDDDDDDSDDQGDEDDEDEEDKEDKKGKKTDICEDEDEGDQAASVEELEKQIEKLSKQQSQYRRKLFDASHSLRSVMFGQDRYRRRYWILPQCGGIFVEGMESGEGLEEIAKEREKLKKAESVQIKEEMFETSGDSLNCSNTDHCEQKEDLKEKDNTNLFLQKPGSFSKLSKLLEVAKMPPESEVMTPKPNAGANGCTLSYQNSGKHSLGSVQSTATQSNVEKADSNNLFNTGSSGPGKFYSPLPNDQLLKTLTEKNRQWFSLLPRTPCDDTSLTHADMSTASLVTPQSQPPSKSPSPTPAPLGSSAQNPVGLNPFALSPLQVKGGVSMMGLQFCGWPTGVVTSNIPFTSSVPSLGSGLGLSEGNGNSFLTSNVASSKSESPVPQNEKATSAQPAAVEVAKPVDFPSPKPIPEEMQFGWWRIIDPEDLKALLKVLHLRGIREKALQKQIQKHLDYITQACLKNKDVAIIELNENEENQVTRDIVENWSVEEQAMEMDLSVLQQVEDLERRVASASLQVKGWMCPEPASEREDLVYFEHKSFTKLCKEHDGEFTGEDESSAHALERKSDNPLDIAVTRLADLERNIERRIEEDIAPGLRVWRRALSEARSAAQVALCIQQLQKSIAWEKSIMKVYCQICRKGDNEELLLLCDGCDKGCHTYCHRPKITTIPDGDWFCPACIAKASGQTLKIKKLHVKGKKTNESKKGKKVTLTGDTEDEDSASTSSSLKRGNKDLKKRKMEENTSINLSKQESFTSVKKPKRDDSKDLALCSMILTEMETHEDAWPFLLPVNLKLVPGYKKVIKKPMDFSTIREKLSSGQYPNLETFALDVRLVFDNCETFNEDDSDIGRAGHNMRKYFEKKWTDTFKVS", "assay": "qHTS Assay for Inhibitors of BAZ2B; note: nearly all actives have a fitted effect of over 60% in size", "settings": "AlphaScreen BAZ2B-H3K14Ac peptide displacement; activity change, negative = inhibition: at 114 µM (top of the series)", "method_in_brief": "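Complex of BAZ2B and biotin-H3K14Ac (50 nM apiece) forms over 30 min at RT, then faces library compounds up to 110 uM for another 30 min; AlphaScreen beads added, 20 min dark incubation, luminescence read.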", "values": [{"smiles": "CC(=O)N1CCc2cc(N=NC3=C(O)CC(C)(C)CC3=O)ccc21", "Potency": "inconclusive: 50.1 µM [inhibitor, partial curve]"}, {"smiles": "O=C(COc1ccc(F)cc1)Nc1cc(S(=O)(=O)N2CCCCC2)ccc1N1CCCCC1", "Potency": "inconclusive: 79.4 µM [inhibitor, single point]"}, {"smiles": "CNC(=S)N(Cc1ccc(OC)cc1)Cc1cc2cccc(C)c2[nH]c1=O", "Potency": "inconclusive: 70.8 µM [inhibitor, single point]"}, {"smiles": "COc1ccc(C2CC(c3ccccc3C)n3nc(N)nc3N2)cc1", "note": "(stereo not drawn)", "Potency": "inconclusive: 89.1 µM [inhibitor, single point]"}, {"smiles": "Cc1cccc(C)c1NC(=O)Cn1nc(-c2ccc(Cl)s2)ccc1=O", "Potency": "inconclusive: 79.4 µM [inhibitor, single point]"}, {"smiles": "CCSc1nc2ccccc2n1Cc1cccc([N+](=O)[O-])c1", "Potency": "inconclusive: 89.1 µM [inhibitor, single point]"}, {"smiles": "O=C(O)C1=C[C@@H](c2coc3ccccc3c2=O)C[C@@H](OCCCCO)O1", "Potency": "inconclusive: 89.1 µM [inhibitor, single point]"}, {"smiles": "O=C(Nc1cccc(Cl)c1)c1cncn1-c1ccc(F)cc1", "Potency": "inconclusive: 89.1 µM [inhibitor, single point]"}, {"smiles": "CCOC(=O)C(c1ccccc1)C(Nc1ccc(Cl)c(Cl)c1)c1ccccn1", "note": "(stereo not drawn)", "Potency": "inconclusive: 89.1 µM [inhibitor, single point]"}, {"smiles": "C/C(CC(=O)Nc1ccc(N(C)C)cc1)=N\\NC(=O)c1ccc(C(C)(C)C)cc1", "Potency": "inconclusive: 50.1 µM [inhibitor, partial curve]"}, {"smiles": "Cc1ccc(CNC(=O)c2ccc3c(=O)[nH]c4c(C(=O)NCC5CCCO5)sc(=S)n4c3c2)cc1", "note": "(stereo not drawn)", "Potency": "active: 35.5 µM"}, {"smiles": "COC(=O)N/N=C/c1ccc(-c2ccccc2Cl)o1", "Potency": "inconclusive: 79.4 µM [inhibitor, single point]"}, {"smiles": "CCCCC(=O)Nc1cc([N+](=O)[O-])ccc1Cl", "activity change, negative = inhibition": "inactive: 7.94%"}, {"smiles": "O=C1C(Nc2ccc(O)cc2)=C/C(=N/S(=O)(=O)c2cccs2)c2ccccc21", "Potency": "active: 7.94 µM"}, {"smiles": "Cc1[nH]n(-c2cccc(Cl)c2)c(=O)c1C=NCc1ccco1", "Potency": "inconclusive: 50.1 µM [inhibitor, partial curve]"}, {"smiles": "Cc1nnc(SCC2=C(C(=O)O)N3C(=O)C(NC(=O)C(C)n4nc(C(F)(F)F)cc4C)C3SC2)s1", "note": "(stereo not drawn)", "Potency": "active: 50.1 µM"}, {"smiles": "Cc1cc(S(=O)(=O)Nc2ccc(-c3ccc(N4CCCCC4)nn3)cc2)c(C)cc1Cl", "Potency": "inconclusive: 79.4 µM [inhibitor, partial curve]"}, {"smiles": "COc1cc(/C=C/C(=O)c2ccc([N+](=O)[O-])o2)ccc1O", "Potency": "inconclusive: 44.7 µM [inhibitor, partial curve]"}, {"smiles": "COc1ccc(C(=O)CNc2ccc(C)cc2C)cc1", "Potency": "inconclusive: 28.2 µM [inhibitor, full curve]"}, {"smiles": "COc1ccc(-c2nc(CN3CCN(Cc4cccc(Cl)c4)CC3)c(C)o2)cc1", "Potency": "inconclusive: 44.7 µM [inhibitor, partial curve]"}, {"smiles": "O=C(c1ccccc1)c1ccc(OCC(O)CNCc2ccc(F)cc2)cc1", "note": "(stereo not drawn)", "Potency": "active: 35.5 µM"}, {"smiles": "O=[N+]([O-])c1ccc(Oc2ccc(F)cc2Br)c2ccncc12", "Potency": "active: 31.6 µM"}, {"smiles": "C[n+]1ccccc1/C=C1\\Sc2ccccc2N1CCO", "Potency": "inconclusive: 39.8 µM [inhibitor, full curve]"}, {"smiles": "Cn1c(C(=O)N(Cc2ccccc2)Cc2cccs2)cc2sccc21", "Potency": "inconclusive: 70.8 µM [inhibitor, single point]"}, {"smiles": "COc1ccc(CN(C(=O)/C=C/C(=O)c2ccc(OC)cc2O)C(C(=O)NC2CCCCC2)c2ccncc2)cc1", "note": "(stereo not drawn)", "Potency": "inconclusive: 79.4 µM [inhibitor, single point]"}, {"smiles": "CCCn1cc(S(=O)(=O)c2cc(C)ccc2C)c(=O)c2cc(F)c(N3CCOCC3)cc21", "Potency": "inconclusive: 89.1 µM [inhibitor, single point]"}, {"smiles": "CCN1CCN(c2ccc(S(=O)(=O)N3CCOCC3)cc2NC(=O)COc2ccc(F)cc2Cl)CC1", "Potency": "inconclusive: 79.4 µM [inhibitor, single point]"}, {"smiles": "O=C(Oc1cccnc1)c1ccc([N+](=O)[O-])cc1", "Potency": "inconclusive: 89.1 µM [inhibitor, single point]"}, {"smiles": "Cc1ccc(S(=O)(=O)Cc2cc(F)c([N+](=O)[O-])cc2[N+](=O)[O-])cc1", "Potency": "active: 56.2 µM"}, {"smiles": "O=C(/C=C/Nc1ccc(Nc2ccccc2)cc1)c1cccs1", "Potency": "active: 12.6 µM"}, {"smiles": "COc1ccc(C(=O)NNC(=O)c2ccc(C(C)(C)C)cc2)cc1", "activity change, negative = inhibition": "inactive: -11.9%"}, {"smiles": "CCn1c(SCc2nc3sc(C(=O)O)c(C)c3c(=O)[nH]2)nc2ccccc21", "Potency": "active: 25.1 µM"}, {"smiles": "Cc1cc(C)c2sc(N(CCCN(C)C)C(=O)c3ccc(S(=O)(=O)N(C)C4CCCCC4)cc3)nc2c1", "Potency": "inconclusive: 10 µM [inhibitor, full curve]"}, {"smiles": "CCC(=O)Nc1cc2c(C)cc(=O)oc2cc1C", "Potency": "inconclusive: 0.631 µM [inhibitor, partial curve, poor fit]"}, {"smiles": "COC(=O)Cc1cc(=O)n(-c2nc3ccccc3[nH]2)[nH]1", "Potency": "active: 7.94 µM"}, {"smiles": "O=C(Cc1c(O)c2ccccc2[nH]c1=O)NCc1ccccc1F", "activity change, negative = inhibition": "inactive: -1.67%"}, {"smiles": "CCN1CCN(C(=O)c2ccc3c(c2)N(Cc2ccc(C)cc2)CCS3)CC1", "activity change, negative = inhibition": "inactive: -28.4% [at 57.1 µM]"}, {"smiles": "CC(C)(C)c1nnc(NC(=S)Nc2ccccc2)s1", "Potency": "inconclusive: 15.8 µM [inhibitor, full curve]"}, {"smiles": "O=C(O)C1Nc2c(O)cccc2C2C=CCC12", "note": "(stereo not drawn)", "Potency": "active: 1.58 µM"}, {"smiles": "CC(=O)c1sc(NCc2ccccc2)nc1C", "Potency": "inconclusive: 89.1 µM [inhibitor, single point]"}, {"smiles": "CCS(=O)(=O)N1CCc2cc(C(=O)Nc3ccc(OC)c(Cl)c3)ccc21", "Potency": "inconclusive: 25.1 µM [inhibitor, full curve]"}, {"smiles": "CCN1CC(CN(C)Cc2cn(-c3ccc(C)cc3)nc2-c2cccc(C)c2)CC1=O", "note": "(stereo not drawn)", "Potency": "inconclusive: 31.6 µM [inhibitor, partial curve, poor fit]"}, {"smiles": "COc1ccc(N2CC(C)Cn3c2nc2c3c(=O)n(Cc3ccccc3)c(=O)n2C)c(OC)c1", "note": "(stereo not drawn)", "Potency": "inconclusive: 35.5 µM [inhibitor, partial curve]"}]}]}
